From the supplement of paper PMC12632987 come the findings set out here.

Over roughly 4,500 sequences, “median log2 fold change of GCK-ALFA target abundance (FLAG IP / Myc IP barcode read proportion)” has its median near 0.078; the lowest 2% begin near -0.6. Some of the results follow.

The labels stand for the following.
B1: GBRAP_52_5915 (protein)
chain: MSAELEAKLDEMLAAVKAGKLEEARAIAREIVESLDDEELRELVELFAERVRAAPLEDLPAWWRLAEILAEELEEAGKDEVLADDLLNRTAAAIYEKLQA
B2: GBRAP_160_4261 (protein)
chain: SEELEELIEDIEEDKEEILSLVDEISAEEVRTYAVTELGSHLLEAIELGIVSDEEEEELAEIIDELEEELTAAADASKEELKAIITKHFEKAKEILEKSK
B3: GBRAP_139_3732 (protein)
chain: SADEEKVKEVVDLTRESFATGGAKVKEVADKLNSLDEDTAEKAAEAMAEVAKDQPFDVVEAFFDALIDTLLTEHKNEDKAEIVEAARNRALAEVAVREEA
B4: GBRAP_39_5715 (protein)
chain: DEEEELELLASYFEALFDKRAYDAGISEEEAVARGLARWREWAERHPEHRERIERLIREAEELGPEARRVLAAAAAGVEAGMPLEEAMAVAEYRFAQLKA
B5: GBRAP_52_6320 (protein)
chain: MKEEAKKLAEELVKLVKEGKLEEARKLAREIARNKSEEFLKMIGEVLAEMAKTANEEEIDAIVEAAEILAEELEKEGYDEAFASDILAKVAAAAYENELK
B6: GBRAP_52_5885 (protein)
chain: ALEEAVKLLEELIEAVKAGDEEKARELAKKIVENFDEETILEAVEKVAKELLDKSLEEAEAFWEAAELLAKELLEKGGSEEVASYIEAIAGATLYKVSQK
B7: GBRAP_128_3538 (protein)
chain: SLEEVKKRAREVMEKIKNSSVEEAYEITKEFLEELKSLSLEEVEAAIEVLEELLPELSAEKLEAIADAMREMRPTLSPEKQRLVADLQVEALNEAEEKEE
B8: GBRAP_186_5382 (protein)
chain: EEEVEEEADKIIDELEAEGYRVIRVYIEGKSVEEIKRAIERDAEAVAALAKETGKKWALVVEVLTRKEDVEEIKEFGEELNKRMLAESGVVVRVAVGDSE
B9: GBRAP_128_3474 (protein)
chain: SVEEVVAETAATMEAIIAADPAEARKLAEALFARLATLDLESVEAAVEVIESHLPKLTAEKLEILADVARAARPAFDPEKAALLADLESEALLLAEEKEE
B10: GBRAP_128_3216 (protein)
chain: STEEAVARVRELLEQIKESDEETAKEIAKELADFIASLSLETAEAAREVIEELLPELTEEQLEILMDAFSEKSKETDGPVADVLADLAVEAGEQILEQEE
B11: GBRAP_11_2813 (protein)
chain: APPEQKEAVKKLKEAAELAEKLIEEEPGNEELLEELLKKAKEALKLVKKHLSEAHKKDAEVALELVEEAKADPENRLEYVKNALAAFRTLLANIEEELEE
B12: GBRAP_26_5493 (protein)
chain: KVEEILEELRKETEEILKDESEDLRAAVIAEAEDLLLEAEEYFEEHLDDEEAQEKAIKEATEELRKELKDFGLSEEKIEKLVEALRKAMEKIKEALKKEK
B13: GBRAP_9_7156 (protein)
chain: MKELVDKIKEVIEDAFEEIEEVVPEEVKPIVEELRKKAEKRLEELAADPNATKEEIVKEAKEILEEIEKVLSEKVDPETKKIVEAIVLTAKLEIEEIAEE
B14: GBRAP_160_4084 (protein)
chain: SEEFEKLIKEVEEIFDEAIEMMKDVSVEEAVAIALVALGEVALLIEEEESLSEEAKEELLELIDEGEEEIRAAKDKSVEEIIELLERFREKIVEKIKEAS
B15: GBRAP_52_6313 (protein)
chain: MREEMRAQAEELLALMLAGDRDGARALAEELVATLSEEELLLLAEELAKLSETLNAEELDKAMELLEILEDVMEEAGVDERVIAEIRGIVITAIYKAEQK
B16: GBRAP_160_4001 (protein)
chain: MEELEKLKKEIEELIKETIEAMEGLTPEERLTLVKGTMGEIIQLVFESPAVSEESEDEIAELGDETIEKVEENKDKPLEVWKELLEETLEKIKEILDKDE
B17: GBRAP_11_2790 (protein)
chain: KKKLLEELAKKLEEAKKLLEKALESDPNDEELWKKLEKELEEAEKLAEEAGDETTAELLKYAKEELEKAKEDPENRKEHLERALALVRVAEGLVLLDIEE
B18: GBRAP_125_2985 (protein)
chain: SMEELLEDLRRLLKALGLSEEEAEEAVRLAREHSLKQTLYAVAKALGWEEVADAVAKLTEEQAKRVVRRASEYIKEHPDITPEEVKELLLELANEELAKA
B19: GBRAP_78_6616 (protein)
chain: EKKEKIKELLEEAERKLREIIKKVPEYANEAADAAVLVGTAIYMVDTGSESKEELKETVKEAIKELEELLKKLKDAPEEAQKLAKEALELAKKALELLEE
B20: GBRAP_160_4747 (protein)
chain: KEELEKLLKEVKEIFDEGIEMLKESPASEAPTIIRGTMGEVIMEVFSSEAASDELEDEVAAIADKAEAEAAANADAPVEVHIAILEKAKEEILAIIEKEI
B21: GBRAP_14_3803 (protein)
chain: SEERKKAVEEITEETIALVREVLADAPEEVRAAVEALVEDFRRTVIEKNLNPDEIAELGDELVARVAEVLADAPEDVRARVLAVVAVNTGEVVLETEELE
B22: GBRAP_78_6638 (protein)
chain: SIEEKLEEALKLVDEAAKLALELPEELRNEILDELVDAASDLEEAIEKGGDLEEIKEAAEHLEKAIELLEKENDPRLEPLLKLAKEALKLVKEVEKEVKK
B23: GBRAP_160_4687 (protein)
chain: SEKVKKAEEFIEEEFEEVVEIHEEVTPEELAAAVRVAFGRIKLELEELGLLTDELGELIDEEEEEIVKYILENPNITKEELRKMLEEAKKKIVEKLKEIS
B24: GBRAP_39_5637 (protein)
chain: EEEEEAEDIYSYLEALGAKLLVERKISLDELLDETYAAALAAVADDPELQALLDELRELALKGDDMDKLAAAGAFARVAEGAPREEARRDLKLLIELFKK
B25: GBRAP_160_4217 (protein)
chain: MELVEKLVEIVREEFEEALELIEGESEEERRVILDVAVGNVILEAMEIPGVTDEMEEVVEEKSRELAEELLEARDKSEEERRKLIEERVEELREELEKLE
B26: GBRAP_14_3842 (protein)
chain: SEELRKLLEEVVDRAVAEVAALAPPEHADRVAALRDALLAAVDEGLKTGDLEEMEERLIAVARATVTELFADLPETERAALVAAAEDALIEGFEEVEKKL
B27: GBRAP_125_3108 (protein)
chain: SEEEILEALKRLAKALGFSEEEAEEAAELARKFSVKQTLYALFLAEGEEELADLVEKLTEEQAKRALLKLAKWLEENPNATKEEVLEQAKKILEEELAKQ
B28: GBRAP_106_2561 (protein)
chain: SKLEELKKFLEEKMEEAMATVEAVTEAIVKRFGVDREEAEAAVRAHALAYVASQLKEKAKELGINNPELIKKIEETMRANRYKSKEEIIKLAKEVLDEGL
B29: GBRAP_128_3205 (protein)
chain: ASPAAVAELRALADEVAETKTDEAIEAFAAAIAEALRAGELDLDSLEEVVTYLGSKLDEDTIVKAEDALRAALADVGPEALATALGALGEVLMEKEEEEE

Chain of GABARAP, O95166 (O95166 whole entry, the tested form may be a part): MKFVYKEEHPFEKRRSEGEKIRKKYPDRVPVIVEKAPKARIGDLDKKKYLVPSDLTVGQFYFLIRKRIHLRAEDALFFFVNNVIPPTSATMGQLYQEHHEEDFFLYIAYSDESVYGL

The target of this assay is GABARAP, O95166. Description: median log2 fold change of GCK-ALFA target abundance (FLAG IP / Myc IP barcode read proportion) (log2 ratio); each designed protein is fused to an ALFA-tag nanobody in HEK293 cells to bring the named protein to FLAG-tagged glucokinase (GCK); Myc marks an untargeted standard; higher = target protein stabilised (more abundant). The following applies: target protein: 3xFLAG-MCP-GCK-ALFA reporter; HEK293 landing pad (RPLP). As for the experimental part:
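LABEL-seq trans screen in HEK293 landing-pad cells. Each de novo designed 100-aa effector handle, binding the indicated effector (E3 ligase, DUB or autophagy protein), is fused to a constant NbALFA target handle and induced with 2 ug/mL doxycycline. A FLAG-MCP-GCK-ALFA target and a Myc-MCP standard reporter were transfected, and after 48 h circRNA barcodes were recovered by anti-FLAG and anti-Myc IP and sequenced. The value is the median across barcodes (at least 3 per design) of log2(FLAG/Myc read-proportion ratio), with the two transfection replicates pooled. Negative values mean degradation and positive values mean stabilisation of the target.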
For B1, the “median log2 fold change” value is -0.669.

Regarding B2, the “median log2 fold change” value was -0.381.

Consider B3, for which the “median log2 fold change” value is 0.236.

Regarding B4, the “median log2 fold change” value was 0.0453.

For B5, the “median log2 fold change” value amounted to 0.275.

As for B6, the “median log2 fold change” value was found to be 0.0702.

Consider B7, for which the “median log2 fold change” value worked out at 0.273.

With B8, the “median log2 fold change” value was found to be 0.0475.

Take B9: the “median log2 fold change” value amounted to 0.242.

As for B10, the “median log2 fold change” value was found to be 0.19.

On to B11, for which the “median log2 fold change” value was 0.23.

On to B12, for which the “median log2 fold change” value is 0.221.

Consider B13, for which the “median log2 fold change” value amounted to 0.172.

For B14, the “median log2 fold change” value is -0.129.

Take B15: the “median log2 fold change” value is -0.0291.

As for B16, the “median log2 fold change” value was -0.0236.

Consider B17, for which the “median log2 fold change” value is -0.266.

Turning to B18, the “median log2 fold change” value amounted to 0.15.

With B19, the “median log2 fold change” value stood at 0.228.

In the case of B20, the “median log2 fold change” value was -0.16.

Consider B21, for which the “median log2 fold change” value was -0.0874.

Consider B22, for which the “median log2 fold change” value is 0.146.

On to B23, for which the “median log2 fold change” value came to 0.26.

As to B24, the “median log2 fold change” value is 0.205.

Take B25: the “median log2 fold change” value is -0.6.

Regarding B26, the “median log2 fold change” value amounted to 0.179.

Regarding B27, the “median log2 fold change” value was -0.437.

In the case of B28, the “median log2 fold change” value is -0.179.

B29: the “median log2 fold change” value was 0.248.
